Measurements from US20250236878A1 (priority 2019, published 2025).

B1: SEQ ID NO: 732: β-1,3 endoglucanase, Paenibacillus species (protein)
chain: AETAGTTITSMSYFSTADGPIITKSGVGQASYGFVMPIFNGGSATWNDVAQDLGVKVKVNGSWVDIDSVSSFVYNQNWGHWNDGGFTGYWFTLSATTEIQLYSKANEVTLEYSLVFQNINKTTITAMTPTQGPQITAGFTGGAGFTYPIFNHDPAITYAAVADDLKVYVKPVNSSQWIDIDNNAASGWIYDQNFGQFTDGGGGYWFNVTESINVKLESKTSSTNIVYTISFNEPVRNSYVLTPYEGTTFTADASGAIGIPLPKIDGGAPIGTELGNFVYQININGQWVDLDNSSQSGFVYSANGYNNMSAANQWGYWADHIYGLWFQPIQVDMQIRIGYPLNGQAGGSVGSNFVNYTLIGNPDAPRPDVNDQEDIPIGTPNDSAIEGMNLIWQDEFNGTALDQSKWNYETGYYLNDDPNTWGWGNSELQHYTDRAQNVFVQDGKLNIKALNEPKSFPQDPSRYAQYSSGKINTKDHFSLKYGRVDFRAKLPTGNGIWPALWMLPQDNVYGTWASSGEIDVMEAKGRLPGSTSGAVHFGGQWPTNRYLSGEYHFPEGQTFANDYHVYSVVWEEDNIKWYVDGKFFFKVTRDQWYSAAAPNNPNAPFDQPFYLIMNLAIGGTFDGGRTPDPSDIPATMQVDYVRVYKEGEGGGQNPGNVPVTGVTVNPTTAQVEVGQSVQLNASVAPSNATNKQVTWSVSGSSIASVSPNGLVTGLAQGTTTVTATTADGNKAASATITVAPAPSTVIVIGDEVKGLKKIGDDLLFYVNGATFADLHYKVNNGGQLNVAMAPTGNGNYTYPVHNLKHGDTVEYFFTYNPGQGALDTPWQTYVHGVTQGTPE
modifications: Paenibacillus spp.
notes: β-1,3 endoglucanase, Paenibacillus species
B2: SEQ ID NO: 773: β-1,3-D-glucanase (protein, listed as Kitasatospora phosalacinea)
chain: ATTPLAAAPVAAGNWGDDFDGPAGAAVDPAKWTLETGGSGNGNHELQYYTAGAANAALDGQGHLVITAKRNTDPGLSCWYGTCQYTSARLNTSRTFTQAYGHFESRIKIPRGQGIWPAFWMLGNDLGTAGWPNSGEIDVMENIGREPGTVHGTIHGPGYSGAGGIGAPYSLPAGQSFADAFHTFAVDWSPTAITWSVDGTAYQTRTPADLGGNRWVFDHPFFVILNLAVGGDWPGSPDGSSTYPQTMTVDYVHTTTWGGSTGGSYTGQITGPGGMCMDVAGASSADSTPIQLHNCTGNAAQQWTVGADGTVRALGKCLDVAAASHNDGAAIQLYTCNGTSAQQWTHRSGNDLLNPGSGKCLDSPNGSSADGTHLQLWTCNGTGAQKWTLG
B3: SEQ ID NO: 774: β-1,3-D-glucanase (protein)
chain: RTAAPEQARTAAGAAAAVSTFSDTFDGPAGAAVDSSKWTLETGDNVNNHERQYYTSGTKNAALDGQGHLVITARKENPAGYQCWYGSCQYTSARLNTAGKFNAQYGHVEARMKIPRGQGMWPAFWMLGTPVNWPDSGEIDVMENVGFEPSTVHGTIHGPGYSGSGGIGAAYSLPNGQAFADAFHTFAVDWAPDSITWSVDGNVYQRRTPADLGGKSWVFNKPFFLILNLAVGGYWPGDPDGSTQFPQTLVVDSVSVTTSGGGAGVPIRGLAGKCVDVAGANSANGTPVQLYDCNGTGAQAWTAGSDGTLRALGKCLDVSGGGTADGTPVQLWDCNGSPAQQWALPAARDIVNPQANKCLDVTGNNAANGTRLQIWTCTGGANQKWTVG
modifications: Streptomyces sp. SYBC17
B4: SEQ ID NO: 775: β-1,3-D-glucanase (protein)
chain: AGPAGETAGRTVQKAAQGAEAAPAAVLFEENFDGPAGSAVDSRRWQLETGDNSGNNHERQYYTPGNANAALDGNGNLVITARKENPGNYQCWYGRCEYTSARMNTAGKFTTTYGHIEARMKLPRGQGMWPAFWMLGHDIGSVGWTNSGEIDIMENVGYEPGTVHGTLHGPGYSGGEGIGAGYTLPGGRAFADDFHTFAVDWSPNSITWSVDGQVYQRRTPADLGGDRWVFDKPFFLILNLAVGGDWPGLPDSSTVFPQKLVVDYVRVTSGGDSGGGGGGRTGTITGLAGKCLDVAWADTANGTPVQIHDCNGNAAQQWTVGTDGTIRALGKCLDVSGAGKADGTPVQIWDCNGTAAQQWVVTGARDIVNPNADKCLDVRDNNSANGTKTQIWTCSGTANQKWNTP
modifications: Streptomyces sp. S27
B5: Serine Protease 2: serine protease 2 cloned from Bacillus subtilis, four substitutions relative to SEQ ID NO: 722 (protein, listed as Bacillus subtilis)
chain: SSKTSADLEKAEVFGDIDMTTSKKTTVIVELKEKSLAEAKEAGESQSKSKLKTARTQAKNKAIKAVKNGKVNREYEQVFSGFSMKLPANEIPKLLAVKDVKAVYPNVTYKTDNMKDKDVTISEDAVSPQMDDSAPYIGANDAWDLGYTGKGIKVAIIDTGVEYNHPDLKKNFGQYKGYDFVDNDYDPKETPTGDPRGEATDHGTHVAGTVAANGTIKGVAPDATLLAYRVLGPGGSGTTENVIAGVERAVQDGADVMNLSLGNSLNNPDWATSTALDWAMSEGVVAVTSNGNSGPNGWTVGSPGTSREAISVGATQLPLDEYAVTFGSYSSAKVMGYNKEDDVKALNNKEVELVEAGIGEAKDFEGKDLTGKVAVVKRGSIAFVDKADNAKKAGAIGMVVYNNLSGEIEANVPGMSVPTIKLSLEDGEKLVSALKAGETKTTFKLTVSKALGEQVADFSSRGPVMDTWMIKPDISAPGVNIVSTIPTHDPDHPYGYGSKQGTSMASPHIAGAVAVIKQAKPKWSVEQIKAAIMNTAVTLKDSDGEVYPHNAQGAGSARIMNAIKADSLVSPGSCSYGTFLKENGNETKNETFTIENQSSIRKSYTLEYSFNGSGISTSGTSRVVIPAHQTGKATARVKVNTKKTKAGTYEGTVIVREGGKTVAKVPTLLIVKEPDYPRVTSVSVSEGSVQGTYQIETYLPAGAEELAFLVYDSNLDFAGQAGIYKNQDKGYQYFDWDGTINGGTKLPAGEYYLLAYAANKGKSSQVLTEEPFTVE

Columns and labels:
[1] = A540 30 min post-treatment, 37° C., citrate buffer pH 4.9 (Table 55)
Protocol: CM-pachyman was carboxymethylated with chloroacetic acid to increase solubility in aqueous solutions.
An amount of 0.125 g of CM-pachyman from Poria cocos was dissolved in 23.5 mL water, at 90° C., and diluted to 25 mL in 0.5 M sodium citrate buffer, pH 4.9.

[2] = test system: kiwi Actinidiae deliciosa 'Hayward' plants; settings: 29 DAI; foliar application
Protocol: 24-hours after the initial treatments, all plants except for the uninfected controls were sprayed with 1×10^8 cfu/mL PSA-V inoculum using a 5 L hand-held pressurized sprayer aimed at the underside of leaves until thoroughly covered. The uninfected control was sprayed with water alone. Potted plants were then transported to Pukehina and placed in an area with overhead misting for 48 hours to mimic environmental conditions for PSA-V infection, with uninfected control plants separated from infected plants. After 48 hours, a subset of plants was then removed from the misting area and allowed to briefly dry before application of Serine Protease 2 (SEQ ID NO: 795). After the final treatments, all plants were moved to their final outdoor trial site, randomized positions in Pukehina. Average daily temperature at the trial site was 20.75° C. with a total rainfall of 277 mm over 34 days. […] Plants were visually monitored throughout the trial period for PSA-V disease assessments, with the same assessor recording the % of leaf area covered in spots at 6 days after inoculation (6 DAI), 16 DAI, 23 DAI and 29 DAI. Additionally, each plant was assessed for treatment phytotoxicity effects at 29 DAI on a scale of 0-10, with 0=no leaf phytotoxicity and 10=very severe leaf phytotoxicity symptoms. […] P-values were calculated for each treatment vs. the untreated control.

| Molecule | activity on CM-pachyman from Poria cocos [1] | Average Phytotoxicity Score (0-10) [2] |
| --- | --- | --- |
| B1 | highest activities | – |
| B2 | have activity | – |
| B3 | have activity | – |
| B4 | have activity | – |
| B5 | – | 0.0 (±0.0) |
